No constants are given. Whether binding was seen depends on the method and setting. Binding seen in cells or lysates may run through a third protein. Tags and fused reporters may be left off the sequences shown.
Biological target: T1, GST-Pdcd4 (full-length human Pdcd4 fused to GST) (human) (UniProt Q53EL6)
T1 sequence: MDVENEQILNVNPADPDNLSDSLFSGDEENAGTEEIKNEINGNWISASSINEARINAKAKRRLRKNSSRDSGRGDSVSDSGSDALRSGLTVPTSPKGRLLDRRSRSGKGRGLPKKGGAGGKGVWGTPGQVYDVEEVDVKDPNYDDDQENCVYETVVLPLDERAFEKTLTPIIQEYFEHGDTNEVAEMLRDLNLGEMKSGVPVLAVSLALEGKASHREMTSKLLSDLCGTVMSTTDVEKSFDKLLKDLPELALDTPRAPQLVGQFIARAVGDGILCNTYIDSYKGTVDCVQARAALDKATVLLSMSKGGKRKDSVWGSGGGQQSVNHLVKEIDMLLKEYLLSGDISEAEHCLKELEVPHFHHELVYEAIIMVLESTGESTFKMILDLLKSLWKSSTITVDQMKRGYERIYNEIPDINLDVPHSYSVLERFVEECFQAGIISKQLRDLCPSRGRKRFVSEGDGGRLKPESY
Assay: pull-down; GST fusion proteins on glutathione sepharose, incubated with extract of transfected cells (QT6 fibroblasts) in ELB buffer, 1 h at 4 °C; western blotting against the Myc or Flag tag; only the target purified

B1: Flag-tagged Tiar (protein, UniProt Q01085 1-375)
chain: MMEDDGQPRTLYVGNLSRDVTEVLILQLFSQIGPCKSCKMITEHTSNDPYCFVEFYEHRDAAAALAAMNGRKILGKEVKVNWATTPSSQKKDTSNHFHVFVGDLSPEITTEDIKSAFAPFGKISDARVVKDMATGKSKGYGFVSFYNKLDAENAIVHMGGQWLGGRQIRTNWATRKPPAPKSTQENNTKQLRFEDVVNQSSPKNCTVYCGGIASGLTDQLMRQTFSPFGQIMEIRVFPEKGYSFVRFSTHESAAHAIVSVNGTTIEGHVVKCYWGKESPDMTKNFQQVDYSQWGQWSQVYGNPQQYGQYMANGWQVPPYGVYGQPWNQQGFGVDQSPSAAWMGGFGAQPPQGQAPPPVIPPPNQAGYGMASYQTQ
With B1 the binding was “no binding”.
